Laboratory results taken from publication PMC2362126.
These are yes or no findings as the source states them, for the method shown. Some entries that bind do so weakly or less than the wild type. Tags and fused reporters may be left off the sequences shown.

The chains behind the UniProt entries cited, without tags or fusion partners.
UniProt P19073: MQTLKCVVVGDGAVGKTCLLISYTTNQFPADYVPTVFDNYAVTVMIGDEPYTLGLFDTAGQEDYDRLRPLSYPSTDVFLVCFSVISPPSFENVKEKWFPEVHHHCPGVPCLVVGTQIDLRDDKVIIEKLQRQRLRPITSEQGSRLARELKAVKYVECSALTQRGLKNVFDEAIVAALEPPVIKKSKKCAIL
UniProt P34149: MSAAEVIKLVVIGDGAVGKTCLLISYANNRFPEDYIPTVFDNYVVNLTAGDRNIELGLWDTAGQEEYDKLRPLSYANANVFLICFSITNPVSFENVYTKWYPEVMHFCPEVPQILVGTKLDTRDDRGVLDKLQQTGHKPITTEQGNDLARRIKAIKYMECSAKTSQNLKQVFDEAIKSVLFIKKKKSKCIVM
UniProt O96390: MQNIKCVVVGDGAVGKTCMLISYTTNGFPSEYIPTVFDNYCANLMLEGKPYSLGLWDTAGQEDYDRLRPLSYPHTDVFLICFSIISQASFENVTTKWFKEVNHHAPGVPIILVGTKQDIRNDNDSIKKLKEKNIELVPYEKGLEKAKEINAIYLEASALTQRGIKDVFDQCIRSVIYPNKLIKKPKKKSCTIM
UniProt P34148: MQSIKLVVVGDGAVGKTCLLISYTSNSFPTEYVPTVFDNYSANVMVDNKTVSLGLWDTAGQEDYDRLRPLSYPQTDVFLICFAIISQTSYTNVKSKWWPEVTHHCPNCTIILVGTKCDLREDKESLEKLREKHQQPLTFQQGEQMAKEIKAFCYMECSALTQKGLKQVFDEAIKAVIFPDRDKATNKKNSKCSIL

T1: D. discoideum RacE, two-hybrid fusion in pAS2-1 (D. discoideum) (UniProt Q23862)
T1 sequence: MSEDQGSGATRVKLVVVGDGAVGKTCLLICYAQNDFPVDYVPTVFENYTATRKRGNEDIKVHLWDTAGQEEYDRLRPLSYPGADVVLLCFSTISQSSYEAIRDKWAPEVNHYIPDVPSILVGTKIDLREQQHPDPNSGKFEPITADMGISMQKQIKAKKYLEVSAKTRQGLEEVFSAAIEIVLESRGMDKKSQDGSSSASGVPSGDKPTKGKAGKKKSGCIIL


Tests used:
[1] = biological target: S. cerevisiae Cdc42, two-hybrid fusion in pGBKT7 (S. cerevisiae) (UniProt P19073); assay: two-hybrid; Matchmaker system (Clontech), Y190 yeast; RhoGDIs in pGADT7 or pACT2, Rho GTPases in pGBKT7 or pAS2-1; growth on -Trp/-Leu/-His/+3AT and colony-lift β-galactosidase assays
[2] = biological target: T1, D. discoideum RacE, two-hybrid fusion in pAS2-1 (D. discoideum); assay: as above
[3] = biological target: D. discoideum Rac1a, two-hybrid fusion in pAS2-1 (D. discoideum) (UniProt P34144); assay: as above
[4] = biological target: D. discoideum RacC, two-hybrid fusion in pAS2-1 (D. discoideum) (UniProt P34149); assay: as above
[5] = biological target: D. discoideum RacF1, two-hybrid fusion in pAS2-1 (D. discoideum) (UniProt O96390); assay: as above
[6] = biological target: D. discoideum RacB, two-hybrid fusion in pAS2-1 (D. discoideum) (UniProt P34148); assay: as above
[7] = biological target: D. discoideum Rac1b, two-hybrid fusion in pAS2-1 (D. discoideum) (UniProt P34145); assay: two-hybrid; as the two-hybrid assay of Fig. 5A (Y190 yeast, colony-lift β-galactosidase); DdRac1b and DdRac1c, result not shown
[8] = biological target: D. discoideum Rac1c, two-hybrid fusion in pAS2-1 (D. discoideum) (UniProt P34146); assay: as above
[9] = biological target: human RhoA, two-hybrid fusion in pAS2-1 (human), P61586; assay: two-hybrid; Matchmaker system (Clontech), Y190 yeast; RhoGDIs in pGADT7 or pACT2, Rho GTPases in pGBKT7 or pAS2-1; growth on -Trp/-Leu/-His/+3AT and colony-lift β-galactosidase assays; settings: remark: other sources report otherwise
[10] = biological target: human Cdc42, two-hybrid fusion in pAS2-1 (human), P60953; assay: as above; settings: remark: other sources report otherwise

binding [1] | binding [2] | binding [3] | binding [4] | binding [5] | binding [6] | binding [7] | binding [8] | binding [9] | binding [10] | Binder
binds | no binding | binds | no binding | no binding | binds | binds | binds | – | – | human LyGDI (RhoGDI2), two-hybrid fusion in pACT2 (protein, UniProt P52566 1-201) MTEKAPEPHVEEDDDDELDSKLNYKPPPQKSLKELQEMDKDDESLIKYKKTLLGDGPVVTDPKAPNVVVTRLTLVCESAPGPITMDLTGDLEALKKETIVLKEGSEYRVKIHFKVNRDIVSGLKYVQHTYRTGVKVDKATFMVGSYGPRPEEYEFLTPVEEAPKGMLARGTYHNKSFFTDDDKQDHLSWEWNLSIKKEWTE
– | – | – | – | – | – | – | – | binds | binds | human LyGDI (RhoGDI2), two-hybrid fusion in pACT2, P52566 1-201 (protein) MTEKAPEPHVEEDDDDELDSKLNYKPPPQKSLKELQEMDKDDESLIKYKKTLLGDGPVVTDPKAPNVVVTRLTLVCESAPGPITMDLTGDLEALKKETIVLKEGSEYRVKIHFKVNRDIVSGLKYVQHTYRTGVKVDKATFMVGSYGPRPEEYEFLTPVEEAPKGMLARGTYHNKSFFTDDDKQDHLSWEWNLSIKKEWTE
